Test results as given in paper PMC9911399, “Two distinct binding modes provide the RNA-binding protein RbFox with extraordinary sequence specificity”.
Substitutions are numbered along the chain they refer to; changes in the protein carry UniProt numbers. Some of the results follow.

T1: RBFOX1 RRM RbFoxmut (Fox-RRM*) (Homo sapiens, UniProt Q9NWB1 109-208, R118D;E147R;N151S;E152T)
T1 sequence: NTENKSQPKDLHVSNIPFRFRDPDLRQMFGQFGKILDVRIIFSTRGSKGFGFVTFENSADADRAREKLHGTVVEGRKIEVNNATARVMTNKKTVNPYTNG

B1: AUUGACU (DNA:RNA)
RNA: GGGAGACCGGAAUUCAGAUUGUCCAUUGACUUUAAAUCCCGUCGUAGCCACCA
DNA 1: CAATCTGAATTCCGGTCTCCC
DNA 2: TGGTGGCTACGACGGGATT
B2: UCCCGGC (DNA:RNA)
RNA: GGGAGACCGGAAUUCAGAUUGUCCUCCCGGCUUAAAUCCCGUCGUAGCCACCA
DNA 1: CAATCTGAATTCCGGTCTCCC
DNA 2: TGGTGGCTACGACGGGATT
B3: GGCAGGA (DNA:RNA)
RNA: B2 RNA with U25G, C26G, C28A, C31A
DNA 1: CAATCTGAATTCCGGTCTCCC
DNA 2: TGGTGGCTACGACGGGATT
B4: GAAUGUC (DNA:RNA)
RNA: B2 RNA with U25G, C26A, C27A, C28U, G30U
DNA 1: CAATCTGAATTCCGGTCTCCC
DNA 2: TGGTGGCTACGACGGGATT
B5: CACUCGG (DNA:RNA)
RNA: B2 RNA with U25C, C26A, C28U, G29C, C31G
DNA 1: CAATCTGAATTCCGGTCTCCC
DNA 2: TGGTGGCTACGACGGGATT
B6: GCGUUGG (DNA:RNA)
RNA: B2 RNA with U25G, C27G, C28U, G29U, C31G
DNA 1: CAATCTGAATTCCGGTCTCCC
DNA 2: TGGTGGCTACGACGGGATT
B7: GCAUUCA (DNA:RNA)
RNA: B1 RNA with A25G, U26C, U27A, G28U, A29U, U31A
DNA 1: CAATCTGAATTCCGGTCTCCC
DNA 2: TGGTGGCTACGACGGGATT
B8: CCCGAUU (DNA:RNA)
RNA: B1 RNA with A25C, U26C, U27C, C30U
DNA 1: CAATCTGAATTCCGGTCTCCC
DNA 2: TGGTGGCTACGACGGGATT
B9: GAUUCCC (DNA:RNA)
RNA: B1 RNA with A25G, U26A, G28U, A29C, U31C
DNA 1: CAATCTGAATTCCGGTCTCCC
DNA 2: TGGTGGCTACGACGGGATT

Each binder was assayed against T1, RBFOX1 RRM RbFoxmut (Fox-RRM*) (assay: EMSA; HiTS-Eq, 1 nM pool, 10 min; buffer printed only for the single-RNA assays: 10 mM Tris pH 7.5, 150 mM NaCl, 3.4 mM EDTA, 0.001% NP-40, 30 C). Details: tags: His6 N-terminal (pET28a); label: 5' 32P.
In short: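 Purified RbFox RRM (wild type or mutant) was equilibrated for 10 min in 50 µL with 1 nM of a 5′-radiolabelled pool of RNA with 7 randomized nucleotides, its flanks annealed to DNA oligonucleotides, across increasing protein concentrations. Free RNA was separated by 8% native PAGE, excised, reverse-transcribed, PCR-barcoded and sequenced on an Illumina HiSeq 2500. Relative association constants came from read-count changes of each variant against the control reaction, normalised to the cognate motif.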

Binder	binding signal
B1	0.0751 KA relative to UGCAUGU
B2	0.0709 KA relative to UGCAUGU
B3	0.0556 KA relative to UGCAUGU
B4	0.55 KA relative to UGCAUGU
B5	0.0998 KA relative to UGCAUGU
B6	0.14 KA relative to UGCAUGU
B7	0.114 KA relative to UGCAUGU
B8	0.0611 KA relative to UGCAUGU
B9	0.0556 KA relative to UGCAUGU
